The supplement of paper PMC9446081
Among all 39,000 compounds or so, about 220 (0.56%) showed activity. Some of the results follow.

Test system: Escherichia coli K-12 BW25113
Experiment: relative growth (OD600 normalised to plate interquartile mean) (fraction); higher = less growth inhibition, active = 0.2 or less
Conditions: 50 µM; LB; incubation time: overnight (16-24 h)
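Note: static incubation at 37 °C against the wild-type strain, values averaged over two biological replicates.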

| Structure (SMILES) | relative growth |
| --- | --- |
| Cc1noc(C)c1S(=O)(=O)Nc1ccc2c(c1)C(=O)N([C@H](C)CO)C[C@@H](C)[C@H](CN(C)Cc1ccccc1)O2 | inactive: 1.05 |
| C1CC2(CCN1)OCCS2 | inactive: 1.02 |
| Cc1noc(C)c1NC(=O)Nc1ccc2c(c1)CC(=O)N([C@@H](C)CO)C[C@H](C)[C@H](CN(C)S(=O)(=O)c1c(C)noc1C)O2 | inactive: 0.996 |
| CC(C)(C)[S@@](=O)N1Cc2cc(C(=O)N[C@@H]3CCN(Cc4ccccc4)C3)nc(-c3cccc(-c4ccncc4)c3)c2[C@H]1CCO | inactive: 1.01 |
| C[C@H](CO)N1C[C@H](C)[C@H](CN(C)C(=O)CN(C)C)Oc2cc(C#Cc3ccccc3)ccc2S1(=O)=O | inactive: 0.986 |
| COc1ccc(S(=O)(=O)Nc2ccc3c(c2)CC(=O)N([C@H](C)CO)C[C@H](C)[C@H](CN(C)C(=O)Nc2c(C)noc2C)O3)cc1 | inactive: 1.02 |
| COc1oc(C(=O)NC2CCCCC2)c(-c2ccc(Cl)cc2)c1S(=O)(=O)c1ccc2c(c1)OCCO2 | inactive: 0.937 |
| CO[C@@H]1CN(C)C(=O)c2ccc(NC(=O)NC(C)C)cc2OC[C@H](C)N(Cc2ccc(-c3ccccn3)cc2)C[C@@H]1C | inactive: 0.971 |
| C[C@H]1CN([C@@H](C)CO)S(=O)(=O)c2ccc(-c3ccncc3)cc2O[C@H]1CN(C)Cc1ccc(Oc2ccccc2)cc1 | inactive: 0.972 |
| Cc1noc(C)c1S(=O)(=O)Nc1ccc2c(c1)C(=O)N([C@H](C)CO)C[C@H](C)[C@@H](CN(C)S(=O)(=O)c1cn(C)cn1)OCCCC[C@H](C)O2 | inactive: 1 |
| COc1ccc(NC(=O)Nc2ccc3c(c2)C(=O)N([C@H](C)CO)C[C@H](C)[C@H](CN(C)C(=O)Nc2ccc4c(c2)OCO4)OCCCC[C@@H](C)O3)cc1 | inactive: 1.02 |
| Cc1noc(C)c1S(=O)(=O)Nc1ccc2c(c1)C(=O)N([C@@H](C)CO)C[C@H](C)[C@H](CN(C)Cc1ccc3c(c1)OCO3)O2 | inactive: 0.963 |
| COc1ccccc1NC(=O)N(C)C[C@H]1Oc2ncc(C#CC(C)C)cc2C(=O)N([C@@H](C)CO)C[C@@H]1C | inactive: 1.01 |
| COc1ccc(S(=O)(=O)N(C)C[C@H]2OCCCC[C@H](C)Oc3ccc(NC(=O)Nc4ccc5c(c4)OCO5)cc3C(=O)N([C@@H](C)CO)C[C@@H]2C)cc1 | inactive: 1.02 |
| [N-]=[N+]=Nc1ccccc1[C@@H]1OC(c2ccc(OCCCO)cc2)=N[C@]1(Cc1ccccc1)C(=O)N1CCCCC1 | inactive: 0.993 |
| COc1ccc(NC(=O)Nc2ccc3c(c2)CC(=O)N([C@@H](C)CO)C[C@H](C)[C@@H](CN(C)S(=O)(=O)c2cn(C)cn2)O3)cc1 | inactive: 0.989 |
| CNC1(C)C2CCC(C2)C1(C)C.Cl (centres undefined) | inactive: 0.976 |
| C[C@@H]1CN([C@H](C)CO)C(=O)c2cc(NC(=O)Cn3cnnn3)ccc2O[C@H]1CN(C)CC1CCCCC1 | inactive: 0.975 |
| C[C@@H]1CCCCO[C@@H](CN(C)Cc2ccc(C(=O)O)cc2)[C@@H](C)CN([C@H](C)CO)C(=O)c2cc(NC(=O)Nc3cccc4ccccc34)ccc2O1 | inactive: 0.991 |
| Nc1nc2c(s1)COCC2 | inactive: 0.986 |

| Structure (SMILES) | relative growth |
| --- | --- |
| COc1ccc(S(=O)(=O)N(C)C[C@H]2OCCCC[C@H](C)Oc3ccc(NC(=O)Nc4ccc5c(c4)OCO5)cc3C(=O)N([C@H](C)CO)C[C@H]2C)cc1 | inactive: 1.01 |
| CS(=O)(=O)N1[C@@H]2c3ccc(-c4ccc(F)cc4)c(=O)n3C[C@@H]2[C@@H](CO)[C@@H]1C(=O)O | inactive: 0.999 |
| C[C@@H]1CN([C@H](C)CO)C(=O)c2cccc(NC(=O)Nc3ccc(C(F)(F)F)cc3)c2O[C@@H]1CN(C)Cc1ccc(-c2ccccc2)cc1 | inactive: 0.926 |
| C[C@H](CO)N1C[C@H](C)[C@H](CN(C)CC2CC2)Oc2cc(C#Cc3cccc(F)c3)ccc2S1(=O)=O | inactive: 1 |
| C[C@@H]1CCCCO[C@@H](CN(C)S(C)(=O)=O)[C@H](C)CN([C@H](C)CO)C(=O)c2cc(NC(=O)Nc3cccc4ccccc34)ccc2O1 | inactive: 0.98 |
| C[C@H](CO)N1C[C@H](C)[C@H](CN(C)Cc2cccc(C(F)(F)F)c2)Oc2ncc(-c3ccc(F)cc3)cc2C1=O | inactive: 0.989 |
| CO[C@H]1CC[C@@H]2[C@H]1OCCN2C(=O)N(C)C | inactive: 1.03 |
| Cc1ccc(S(=O)(=O)Nc2cccc3c2O[C@@H](CN(C)C(=O)Nc2ccc(C(F)(F)F)cc2)[C@@H](C)CN([C@@H](C)CO)C3=O)cc1 | inactive: 0.98 |
| COc1ccc(S(=O)(=O)N(C)C[C@H]2Oc3ccc(NS(C)(=O)=O)cc3C(=O)N([C@@H](C)CO)C[C@H]2C)cc1 | inactive: 1.04 |
| COc1cccc(NC(=O)N[C@H]2CC[C@@H](CC(=O)N3CCN(C)CC3)O[C@H]2CO)c1 | inactive: 1.02 |
| C[C@@H]1CCCCO[C@H](CN(C)C(=O)CCCN(C)C)[C@@H](C)CN([C@@H](C)CO)C(=O)c2cc(NC(=O)Nc3ccc(C(F)(F)F)cc3)ccc2O1 | inactive: 0.965 |
| CO[C@H]1CN(C)C(=O)c2cc(NS(C)(=O)=O)ccc2OC[C@@H](C)N(C(=O)c2ccc3c(c2)OCO3)C[C@@H]1C | inactive: 0.998 |
| CC(/C=C/C(=O)NO)=C\c1ccccc1OCc1cn(CC[C@@H]2OC(=O)[C@H](Cc3ccccc3)N3CC4=C[C@@H](C5CC5)n5c(=O)n(C)c(=O)n5[C@H]4[C@H]23)nn1 | inactive: 1.04 |
| COCCC(=O)N1CC[C@]2(CCOC2)C1 | inactive: 1.03 |
| CC(=O)OC1CC(OC(C)=O)C2(C)C(CC(=O)C3(C)C2CCC2(C)C(c4ccoc4)OC(=O)C4OC423)C1(C)C (centres undefined) | inactive: 0.958 |
| CCC[C@@H](O)C#Cc1cnc2c(c1)C(=O)N([C@H](C)CO)C[C@H](C)[C@H](CN(C)C(=O)Nc1ccc(OC)cc1)O2 | inactive: 0.984 |
| COc1ccc(C#Cc2ccc3c(c2)O[C@@H](CN(C)S(=O)(=O)c2ccccc2F)[C@H](C)CN([C@@H](C)CO)S3(=O)=O)cc1 | inactive: 1.03 |
| COc1ccc(NC(=O)N(C)C[C@H]2Oc3ncc(C#C[C@@H](C)O)cc3C(=O)N([C@H](C)CO)C[C@H]2C)cc1 | inactive: 0.997 |
| COc1ccccc1CNC(=O)C[C@@H]1C[C@H]2c3cc(NS(=O)(=O)c4ccc(F)cc4)ccc3O[C@H]2[C@@H](CO)O1 | inactive: 1 |
| Cc1ccsc1[C@@H](O)CN | inactive: 1.03 |

| Structure (SMILES) | relative growth |
| --- | --- |
| C[C@@H]1CN([C@H](C)CO)S(=O)(=O)c2ccc(C#CC3CCCC3)cc2O[C@H]1CN(C)C(=O)Cc1ccncc1 | inactive: 1 |
| C[C@@H]1O[C@@H](O[C@H]2[C@H](O[C@H]3[C@H](O)[C@@H](O[C@@H]4O[C@H](CO)[C@@H](O)[C@H](O)[C@H]4O)[C@H](O[C@H]4CC[C@]5(C)[C@H]6CC[C@]78OC[C@@]9(CCC(C)(C)C[C@@H]97)[C@H](O)C[C@@]8(C)[C@]6(C)CC[C@H]5C4(C)C)O[C@@H]3C(=O)O)O[C@H](CO)[C@H](O)[C@@H]2O)[C@H](O)[C@H](O)[C@H]1O | inactive: 0.998 |
| CNS(=O)(=O)c1ccc2[nH]c(=O)[nH]c2c1 | inactive: 1.01 |
| C[C@H]1CN([C@@H](C)CO)C(=O)c2cccc(NC(=O)Nc3ccccc3)c2O[C@H]1CN(C)C(=O)Nc1cccc2ccccc12 | inactive: 0.961 |
| COc1ccc(C#Cc2cnc3c(c2)C(=O)N([C@H](C)CO)C[C@H](C)[C@@H](CN(C)C(=O)CN(C)C)O3)cc1 | inactive: 1.01 |
| C[C@H]1CN([C@@H](C)CO)C(=O)c2cccc(NC(=O)Nc3cccc4ccccc34)c2O[C@H]1CN(C)C(=O)Nc1ccc(F)cc1 | inactive: 0.986 |
| OCc1ccccc1O | inactive: 1.14 |
| C[C@@H]1CN([C@H](C)CO)C(=O)Cc2cc(NC(=O)CCC(F)(F)F)ccc2O[C@@H]1CN(C)Cc1ccc(-c2ccccc2)cc1 | inactive: 0.994 |
| Cn1nccc1CO | inactive: 0.994 |
| C[C@H]1CN([C@@H](C)CO)C(=O)c2cc(NS(=O)(=O)c3cccs3)ccc2O[C@H]1CN(C)S(=O)(=O)c1ccccc1 | inactive: 0.99 |
| C[C@H](CO)N1C[C@H](C)[C@@H](CN(C)S(=O)(=O)c2cn(C)cn2)Oc2ncc(C3=CCCCC3)cc2C1=O | inactive: 0.974 |
| Cc1ccc(S[C@]2(C(=O)NCc3ccccc3)CC(=O)N(Cc3ccccc3C(F)(F)F)[C@@H]2c2ccc(CO)cc2)cc1 | inactive: 1.03 |
| CC(=O)N(C)C[C@@H]1Oc2cc(C#CCN(C)C)ccc2S(=O)(=O)N([C@@H](C)CO)C[C@H]1C | inactive: 0.99 |
| C[C@@H]1CN([C@H](C)CO)C(=O)Cc2cc(NC(=O)c3ccncc3)ccc2O[C@@H]1CN(C)S(=O)(=O)c1cn(C)cn1 | inactive: 1.01 |
| C[C@H](CO)N1C[C@H](C)[C@@H](CN(C)C(=O)c2ccccc2)Oc2cc(C#C[C@@H](C)O)ccc2S1(=O)=O | inactive: 1.01 |
| C[C@@H]1CN([C@H](C)CO)C(=O)c2cc(NC(=O)Nc3cccc4ccccc34)ccc2O[C@@H](C)CCCCO[C@@H]1CN(C)Cc1ccccc1 | inactive: 0.979 |
| C[C@H](CO)N1C[C@H](C)[C@@H](CN(C)C(=O)c2ccc3c(c2)OCO3)Oc2cc(-c3ccncc3)ccc2S1(=O)=O | inactive: 0.998 |
| C[C@H]1CCCCO[C@H](CN(C)S(=O)(=O)c2ccc(Cl)cc2)[C@@H](C)CN([C@@H](C)CO)C(=O)c2cc(NC(=O)c3ccncc3)ccc2O1 | inactive: 0.979 |
| Cc1ccc(C(=O)Nc2cccc(C(F)(F)F)c2)cc1Nc1nc(-c2cccnc2)nc2c1cnn2C | inactive: 0.842 |
